Data reported in the antibiotic and cytotoxicity screens of Wong et al. (2023).
This is one part of the list.

Test system: HepG2
Assay: cytotoxicity call (relative viability < 0.9)
Details: 10 µM

SMILES | cytotoxicity call
C[C@@H]1CCCCO[C@@H](CN(C)S(=O)(=O)c2cccs2)[C@H](C)CN([C@@H](C)CO)C(=O)c2cc(NS(=O)(=O)c3ccc(Cl)cc3)ccc2O1 | inactive
COc1ccc(NC(=O)Nc2ccc3c(c2)C(=O)N([C@H](C)CO)C[C@@H](C)[C@@H](CN(C)CC2CCCCC2)OCCCC[C@H](C)O3)cc1 | active
C[C@@H]1CCCCO[C@H](CN(C)S(=O)(=O)c2ccc(F)cc2)[C@H](C)CN([C@@H](C)CO)C(=O)c2cc(NC(=O)Nc3ccc4c(c3)OCO4)ccc2O1 | inactive
O=C(C[C@@H]1C[C@H]2c3cc(NC(=O)NC4CCCC4)ccc3O[C@H]2[C@@H](CO)O1)NCCN1CCCCC1 | inactive
O=C(C[C@H]1CC[C@H]2[C@@H](COC[C@@H](O)CN2C(=O)c2ccc3c(c2)OCO3)O1)NCCN1CCCC1 | inactive
CC(C)(O/N=C(\C(=O)N[C@@H]1C(=O)N2C(C(=O)O)=C(C[N+]3(CCNC(=O)c4ccc(O)c(O)c4Cl)CCCC3)CS[C@H]12)c1csc(N)n1)C(=O)O | inactive
O=C(C[C@H]1C[C@@H]2c3cc(NC(=O)Cc4ccncc4)ccc3O[C@@H]2[C@H](CO)O1)NCCN1CCCCC1 | inactive

Test system: S. aureus RN4220
Assay: growth inhibition call (relative growth <= 0.2)
Details: 50 µM

SMILES | growth inhibition call
C[C@@H]1CN([C@@H](C)CO)C(=O)c2cccc(NC(=O)C3CC3)c2O[C@H]1CN(C)Cc1ccc2c(c1)OCO2 | inactive
COc1cccc(S(=O)(=O)N(C)C[C@@H]2Oc3c(NC(=O)Nc4cccc5ccccc45)cccc3C(=O)N([C@@H](C)CO)C[C@H]2C)c1 | inactive
C[C@H](CO)N1C[C@H](C)[C@@H](CN(C)S(C)(=O)=O)Oc2ccc(NS(=O)(=O)c3ccc(Cl)cc3)cc2CC1=O | inactive
O=C1C(CCS(=O)c2ccccc2)C(=O)N(c2ccccc2)N1c1ccccc1 (configuration not stated) | inactive
C[C@@H]1CN([C@@H](C)CO)C(=O)Cc2cc(NC(=O)CCC(F)(F)F)ccc2O[C@H]1CN(C)Cc1ccc(-c2ccccc2)cc1 | inactive
N#Cc1ncccn1 | inactive
COc1ccc(S(=O)(=O)Nc2cccc3c2O[C@H](CN(C)Cc2ccc(Oc4ccccc4)cc2)[C@H](C)CN([C@H](C)CO)C3=O)cc1 | inactive
CO[C@H]1CN(C)C(=O)c2ccc(NC(=O)C3CC3)cc2OC[C@@H](C)N(C(=O)C2CCOCC2)C[C@@H]1C | inactive
CO[C@@H]1[C@H](O)[C@@H](CO)O[C@H]1n1ccc(N)nc1=O | inactive
C[C@H](CO)N1C[C@H](C)[C@H](CN(C)C(=O)Nc2ccc(C(F)(F)F)cc2)Oc2ncc(/C=C/c3ccccc3)cc2C1=O | inactive
COCCN1CC[C@@H](CO)C1 | inactive
C[C@@H](N)CCCC(C)(C)O | inactive
COC(=O)c1ccc(C(=O)NN)cc1 | inactive
C[C@H](CO)N1C[C@H](C)[C@H](CN(C)Cc2cccc(C(F)(F)F)c2)Oc2ncc(-c3cccc(F)c3)cc2C1=O | inactive
COc1ccc(S(=O)(=O)N(C)C[C@H]2Oc3cc(C4=CCCC4)ccc3S(=O)(=O)N([C@@H](C)CO)C[C@@H]2C)cc1 | inactive
CCS(=O)(=O)N1CC[C@]2(CC1)CN([C@@H](CO)c1c2c2ccc(cc2n1C)OC)C(=O)Nc1c(noc1C)C | inactive
C=CCN(CCCC)C(=O)[C@H]1N(CCOCCO)C(=O)[C@H]2[C@H](C(=O)O)[C@@H]3C=C[C@@]21O3 | inactive
COc1ccc(S(=O)(=O)N(C)C[C@@H]2OCCCC[C@H](C)Oc3ccc(NC(=O)Nc4ccc(C(F)(F)F)cc4)cc3C(=O)N([C@H](C)CO)C[C@H]2C)cc1 | inactive
C[C@H]1CCCCO[C@H](CN(C)Cc2ccncc2)[C@@H](C)CN([C@@H](C)CO)C(=O)c2cc(NC(=O)Nc3ccc(F)cc3)ccc2O1 | inactive
Cc1noc(C)c1NC(=O)N(C)C[C@@H]1Oc2ccc(NC(=O)Cn3cnnn3)cc2C(=O)N([C@H](C)CO)C[C@H]1C | inactive

SMILES | growth inhibition call
C=CC[C@@H](CC(=O)NCCO)C(=O)N[C@H](COC(=O)[C@H](CC=C)CC(=O)OC(C)(C)C)Cc1c[nH]c2ccccc12 | inactive
CC(C)NC(=O)Nc1ccc2c(c1)C(=O)N([C@H](C)CO)C[C@H](C)[C@H](CN(C)S(=O)(=O)c1cn(C)cn1)O2 | inactive
C[C@H]1CN([C@@H](C)CO)C(=O)Cc2cc(NC(=O)c3ccncc3)ccc2O[C@H]1CN(C)S(=O)(=O)c1ccccc1 | inactive
C[C@H]1CN([C@@H](C)CO)C(=O)Cc2cc(NC(=O)CCCCCC(=O)Nc3ccccc3N)ccc2O[C@@H]1CN(C)C(=O)Nc1ccc(F)cc1 | inactive
COc1cccc(S(=O)(=O)N(C)C[C@@H]2OCc3cn(nn3)CCCC(=O)N([C@@H](C)CO)C[C@@H]2C)c1 | inactive
C[C@@H](O)/C=C/c1cccc[n+]1C | inactive
COc1ccc(S(=O)(=O)N(C)C[C@@H]2OCCCC[C@H](C)Oc3ccc(NC(=O)Nc4ccc(F)cc4)cc3C(=O)N([C@@H](C)CO)C[C@H]2C)cc1 | inactive
NS(=O)(=O)c1ccc(F)c(C(=O)O)c1 | inactive
CO[C@@H]1CN(C)C(=O)c2ccc(NS(=O)(=O)c3cn(C)cn3)cc2OC[C@H](C)N(Cc2cccc(F)c2)C[C@@H]1C | inactive
C[C@H](CO)N1C[C@H](C)[C@H](CN(C)Cc2ccc(C(F)(F)F)cc2)Oc2ccc(NC(=O)NC3CCCCC3)cc2CC1=O | inactive
C[C@@H]1CN([C@@H](C)CO)S(=O)(=O)c2ccc(C#Cc3ccncc3)cc2O[C@H]1CN(C)S(=O)(=O)c1ccccc1 | inactive
COc1ccc(S(=O)(=O)N[C@@H]2C=C[C@H](CC(=O)N3CCC(Cc4ccccc4)CC3)O[C@H]2CO)cc1 | inactive
CCCC#Cc1cnc2c(c1)C(=O)N([C@@H](C)CO)C[C@@H](C)[C@@H](CN(C)S(=O)(=O)c1cn(C)cn1)O2 | inactive
C[C@@H]1CCCCO[C@@H](CN(C)S(=O)(=O)c2cccs2)[C@H](C)CN([C@@H](C)CO)C(=O)c2cc(NS(=O)(=O)c3ccc(Cl)cc3)ccc2O1 | inactive
COc1ccc(NC(=O)Nc2ccc3c(c2)C(=O)N([C@H](C)CO)C[C@@H](C)[C@@H](CN(C)CC2CCCCC2)OCCCC[C@H](C)O3)cc1 | inactive
C[C@@H]1CCCCO[C@H](CN(C)S(=O)(=O)c2ccc(F)cc2)[C@H](C)CN([C@@H](C)CO)C(=O)c2cc(NC(=O)Nc3ccc4c(c3)OCO4)ccc2O1 | inactive
O=C(C[C@@H]1C[C@H]2c3cc(NC(=O)NC4CCCC4)ccc3O[C@H]2[C@@H](CO)O1)NCCN1CCCCC1 | inactive
O=C(C[C@H]1CC[C@H]2[C@@H](COC[C@@H](O)CN2C(=O)c2ccc3c(c2)OCO3)O1)NCCN1CCCC1 | inactive
CC(C)(O/N=C(\C(=O)N[C@@H]1C(=O)N2C(C(=O)O)=C(C[N+]3(CCNC(=O)c4ccc(O)c(O)c4Cl)CCCC3)CS[C@H]12)c1csc(N)n1)C(=O)O | inactive
O=C(C[C@H]1C[C@@H]2c3cc(NC(=O)Cc4ccncc4)ccc3O[C@@H]2[C@H](CO)O1)NCCN1CCCCC1 | inactive
